# According to PubChem BioAssay (NCATS):
# Where “and” joins values, the source holds several entries; their conditions need not be identical. Equal entries are not always repeated. The shares of active, inactive and inconclusive entries below differ from those in the screen. Potencies of inconclusive entries are doubtful fits and often do not repeat. Calls of active or inactive are those of the source. Calls come from the whole dose curve; as a rule, active = well fitted curve in the direction sought with a large enough effect; inconclusive = small, poorly fitted or top-dose-only effect, or another doubt; inactive = no such curve, though single readings can be large; an effect the other way counts as inactive or inconclusive.
# Tests used:
# [1] = target: Phospholipid hydroperoxide glutathione peroxidase GPX4 (Homo sapiens) (UniProt P36969); assay: Primary qHTS Assay for Inhibitors of Recombinant Selenoprotein Glutathione Peroxidase 4 (GPX4) (AID 1845192); note: nearly all actives have a fitted effect of over 65% in size
# Chain of UniProt P36969 (P36969 whole entry, looked up): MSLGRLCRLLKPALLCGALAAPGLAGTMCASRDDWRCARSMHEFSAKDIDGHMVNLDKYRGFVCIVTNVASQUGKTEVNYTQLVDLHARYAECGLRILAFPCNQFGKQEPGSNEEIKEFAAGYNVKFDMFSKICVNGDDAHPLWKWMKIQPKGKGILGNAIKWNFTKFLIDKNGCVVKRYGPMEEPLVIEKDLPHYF
# Procedure, shortened: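 NADPH consumption, followed by fluorescence at 340/450 nm between 0 and 15 min, reports GPX4 activity via coupled glutathione reductase (100 nM). Enzyme 200 nM was pre-exposed to compound 30 min; 0.5 mM cumene hydroperoxide and 1 mM GSH served as substrates.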
# [2] = Quantitative High-Throughput drug screen in 47 multiple myeloma cell lines against the NCATS MIPE library collection: FR4_PLB cell viability assay (AID 1918924; note: nearly all actives have a fitted effect of over 35% in size); conditions: FR4_PLB myeloma cells viability, CellTiter-Glo ATP, 48 h; series mostly up to 45.8 µM
# Procedure, shortened: (§1)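 Luminescent ATP measurement with CellTiter-Glo gives viability, scaled between DMSO-only wells (100%) and media-only wells (0%). Cells, 500 per well, faced library compounds for 48 hours at 37C.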
# [3] = Quantitative High-Throughput drug screen in 47 multiple myeloma cell lines against the NCATS MIPE library collection: Delta47_JCRB cell viability assay (AID 1918925; note: nearly all actives have a fitted effect of over 45% in size); conditions: Delta47 myeloma viability, CellTiter-Glo ATP, 48 h; viability (% of DMSO): at 45.8 µM (top of the series) unless noted
# Procedure, shortened: (§2)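 Primary qHTS used for cherry-picking: cells at 500/well, library compounds for 48 h (37C, 5% CO2), luminescent ATP assay.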
# [4] = Quantitative High-Throughput drug screen in 47 multiple myeloma cell lines against the NCATS MIPE library collection: EJM_DSMZ cell viability assay (AID 1918926; note: nearly all actives have a fitted effect of over 30% in size); conditions: EJM myeloma cell viability, CellTiter-Glo ATP, 48 h; series mostly up to 45.8 µM
# Procedure, shortened: as §2
# [5] = Quantitative High-Throughput drug screen in 47 multiple myeloma cell lines against the NCATS MIPE library collection: AMO1_DSMZ cell viability assay (AID 1918927; note: nearly all actives have a fitted effect of over 30% in size)
# Procedure, shortened: as §2
# [6] = Quantitative High-Throughput drug screen in 47 multiple myeloma cell lines against the NCATS MIPE library collection: ARP1_JJKsccF8 cell viability assay (AID 1918928; note: nearly all actives have a fitted effect of over 40% in size); conditions: ARP1 myeloma cells viability, CellTiter-Glo ATP, 48 h; viability: at 45.8 µM (top of the series)
# Procedure, shortened: (§3)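 Myeloma cells, 500 per well, were exposed to MIPE 4.0 drugs by pin transfer for 48 h at 37 °C, 5% CO2. Viability was read as ATP luminescence with CellTiter-Glo, normalised to DMSO-only (100%) and medium-only (0%) wells.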
# [7] = Quantitative High-Throughput drug screen in 47 multiple myeloma cell lines against the NCATS MIPE library collection: Karpas417_ECACC cell viability assay (AID 1918961); conditions: Karpas417 myeloma viability, CellTiter-Glo ATP luminescence, 48 h; viability (% of DMSO): at 45.8 µM (top of the series) unless noted
# Procedure, shortened: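 Steps: seed 500 cells per well; pin-transfer MIPE 4.0 library; incubate 48 h at 37C, 5% CO2, humidified; add CellTiter-Glo, 5 min room temperature; read luminescence.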
# [8] = Quantitative High-Throughput drug screen in 47 multiple myeloma cell lines against the NCATS MIPE library collection: KHM11_PLB cell viability assay (AID 1918962); conditions: KHM11 myeloma cell viability, CellTiter-Glo ATP luminescence, 48 h; series mostly up to 45.8 µM; note: nearly all actives have a fitted effect of over 35% in size
# Procedure, shortened: as §1
# [9] = Quantitative High-Throughput drug screen in 47 multiple myeloma cell lines against the NCATS MIPE library collection: ARD_JJKsccE7 cell viability assay (AID 1918929)
# Procedure, shortened: as §2
# [10] = Quantitative High-Throughput drug screen in 47 multiple myeloma cell lines against the NCATS MIPE library collection: KMM1_JCRB cell viability assay (AID 1918960); conditions: KMM1 myeloma viability, CellTiter-Glo ATP luminescence, 48 h; viability (% of DMSO): at 45.8 µM (top of the series); note: nearly all actives have a fitted effect of over 30% in size
# Procedure, shortened: as §3
# [11] = Quantitative High-Throughput drug screen in 47 multiple myeloma cell lines against the NCATS MIPE library collection: Karpas620_DSMZ cell viability assay (AID 1918959); note: nearly all actives have a fitted effect of over 30% in size
# Procedure, shortened: as §1
# Potency is the fitted concentration of half-maximal effect; tags give direction and shape of the fitted curve.
SMILES,Potency [1],Potency [2],Potency [3],Potency [4],Potency [5],Potency [6],Potency [7],Potency [8],Potency [9],Potency [10],Potency [11]
S=c1nc[nH]c2nc[nH]c12,"inconclusive: 20.2 µM [inhibitor, single point]","inconclusive: 0.662 µM [cytotoxic, full curve]","inconclusive: 13.2 µM [cytotoxic, partial curve, poor fit]",inactive,inactive,active: 2.35 µM,"inconclusive: 37.2 µM [cytotoxic, single point]",inactive,,,
O=C(O)c1nc(=O)[nH]c(=O)[nH]1,"inconclusive: 8.81 µM [inhibitor, partial curve]",,"inconclusive: 18.2 µM [cytotoxic, single point]",inactive,,inactive,"inconclusive: 1.02 µM [rising, full curve, poor fit]",inactive,,,
O=C(NC1CC1)c1cccc(-c2ccc3c(NC(=O)C4CC4)n[nH]c3c2)c1,inactive,active: 2.09 µM,active: 7.43 µM,"inconclusive: 0.662 µM [cytotoxic, full curve]","inconclusive: 2.64 µM [cytotoxic, full curve, poor fit]",,,"inconclusive: 16.6 µM [cytotoxic, partial curve, poor fit]","inconclusive: 3.72 µM [cytotoxic, partial curve, poor fit]","inconclusive: 2.64 µM [cytotoxic, full curve, poor fit]",
Cc1nc2c([nH]1)CCN(C(=O)c1ccc(NC(=O)c3ccccc3-c3ccccc3)cc1)c1ccccc1-2,"inconclusive: 15.8 µM [inhibitor, partial curve]",inconclusive: 0.001 µM [cytotoxic],"inconclusive: 26.4 µM [cytotoxic, single point]",inactive,,"inconclusive: 2.96 µM [cytotoxic, full curve, poor fit]","inconclusive: 0.059 µM [cytotoxic, full curve, poor fit]","inconclusive: 3.72 µM [rising, full curve]",inactive,,"inconclusive: 18.7 µM [cytotoxic, partial curve, poor fit]"
OCCN1CCN(CCCN2c3ccccc3Sc3ccc(C(F)(F)F)cc32)CC1,"inactive and inconclusive: 32.1 µM [inhibitor, single point]",,,"inconclusive: 23.5 µM [cytotoxic, single point]",,,"inconclusive: 20.9 µM [cytotoxic, partial curve]","inconclusive: 37.2 µM [cytotoxic, single point]","inconclusive: 29.6 µM [cytotoxic, single point]",,
Cc1cnc(C(=O)NCCc2ccc(S(=O)(=O)NC(=O)NC3CCCCC3)cc2)cn1,inactive,"inconclusive: 7.43 µM [cytotoxic, partial curve, poor fit]","inconclusive: 16.6 µM [cytotoxic, partial curve, poor fit]","inconclusive: 14.8 µM [cytotoxic, partial curve, poor fit]",,active: 18.7 µM,inactive,"inconclusive: 29.6 µM [cytotoxic, partial curve, poor fit]",,,inactive
CN(CCOc1ccc(CC2SC(=O)NC2=O)cc1)c1ccccn1 (configuration not stated),"inconclusive: 12.8 µM [inhibitor, partial curve, poor fit]",,,"inconclusive: 0.0037 µM [cytotoxic, full curve, poor fit]",,"inconclusive: 2.96 µM [cytotoxic, full curve, poor fit]","inconclusive: 9.35 µM [rising, partial curve, poor fit]",inactive,inconclusive: 0.001 µM,,
Cc1ccc(Nc2cc(-c3cccc(N4C(=O)c5ccccc5C4=O)c3)ncn2)cc1NS(C)(=O)=O,inactive,"inconclusive: 26.4 µM [cytotoxic, single point]",,,,,active: 4.69 µM,"inconclusive: 37.2 µM [cytotoxic, single point]",active: 20.9 µM,,"inconclusive: 26.4 µM [cytotoxic, single point]"
CN(C)c1ccc(O)c2c1C[C@H]1C[C@H]3[C@H](N(C)C)C(=O)C(C(N)=O)=C(O)[C@@]3(O)C(=O)C1=C2O,"inconclusive: 14.3 µM [inhibitor, partial curve] and inconclusive: 28.2 µM [inhibitor, partial curve]",,"inconclusive: 29.6 µM [cytotoxic, partial curve]",,,,inactive,"inconclusive: 33.2 µM [cytotoxic, single point]",inactive,inactive,
